About 2,200 (0.71%) of roughly 310,000 compounds showed an effect of 50% or more. Effects have a minus sign here. Some of the results follow.
The compounds below were run against human ether-à-go-go-related gene (hERG) potassium channel (human, UniProt Q12809) (assay: primary screen, population patch clamp on CHO cells stably expressing hERG).
Sequence of human ether-à-go-go-related gene (hERG) potassium channel (Q12809 whole entry, looked up): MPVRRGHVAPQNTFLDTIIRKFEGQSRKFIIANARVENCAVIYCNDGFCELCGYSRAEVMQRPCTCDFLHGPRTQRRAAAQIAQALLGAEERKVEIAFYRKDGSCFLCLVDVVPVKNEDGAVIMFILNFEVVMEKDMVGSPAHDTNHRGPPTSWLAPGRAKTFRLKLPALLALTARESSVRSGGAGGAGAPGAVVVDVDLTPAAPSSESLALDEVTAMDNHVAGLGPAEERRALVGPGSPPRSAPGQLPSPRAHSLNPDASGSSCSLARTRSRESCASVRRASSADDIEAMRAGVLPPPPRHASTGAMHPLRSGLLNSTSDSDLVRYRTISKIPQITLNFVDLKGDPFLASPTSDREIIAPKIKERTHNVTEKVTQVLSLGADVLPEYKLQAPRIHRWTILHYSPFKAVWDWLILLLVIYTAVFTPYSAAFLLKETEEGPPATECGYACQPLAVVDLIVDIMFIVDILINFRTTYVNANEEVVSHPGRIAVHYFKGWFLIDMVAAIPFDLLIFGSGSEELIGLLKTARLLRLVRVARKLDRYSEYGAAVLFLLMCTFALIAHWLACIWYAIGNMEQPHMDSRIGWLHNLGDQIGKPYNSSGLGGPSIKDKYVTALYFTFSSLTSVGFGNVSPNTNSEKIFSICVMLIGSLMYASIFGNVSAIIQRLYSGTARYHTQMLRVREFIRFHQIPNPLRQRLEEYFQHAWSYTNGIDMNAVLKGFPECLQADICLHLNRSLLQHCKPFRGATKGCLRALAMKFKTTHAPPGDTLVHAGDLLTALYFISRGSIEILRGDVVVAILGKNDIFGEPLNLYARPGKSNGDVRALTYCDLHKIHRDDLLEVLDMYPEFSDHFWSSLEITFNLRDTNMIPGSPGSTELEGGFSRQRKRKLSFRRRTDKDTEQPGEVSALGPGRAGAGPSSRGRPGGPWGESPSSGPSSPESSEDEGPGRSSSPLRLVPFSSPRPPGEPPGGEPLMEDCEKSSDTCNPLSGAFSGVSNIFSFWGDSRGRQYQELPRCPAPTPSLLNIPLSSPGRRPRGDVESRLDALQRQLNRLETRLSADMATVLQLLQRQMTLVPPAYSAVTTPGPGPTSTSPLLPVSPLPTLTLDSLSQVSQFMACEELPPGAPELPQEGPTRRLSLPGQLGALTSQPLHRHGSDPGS

Question: How did the “hERG current change (%, negative = inhibition) at 1uM” value turn out when `CC1CCCC(C)N1CCCNC(=O)c1ccc2nc(N3CCOCC3)sc2c1` (centres unmarked) was run?
Answer: 6.49%

Question: How did the “hERG current change (%, negative = inhibition) at 1uM” value turn out when `O=C(NNC(=O)c1csc(-c2cccnc2)n1)Nc1ccc(Cl)cc1` was run?
Answer: 13.1%

Question: How did the “hERG current change (%, negative = inhibition) at 1uM” value turn out when `O=C(Nc1ccccc1F)c1ccc(-c2cccc([N+](=O)[O-])c2)o1` was run?
Answer: 13.7%

Question: `Cc1ccc(S/C(=N\S(=O)(=O)c2ccc(Cl)cc2)c2ccccc2)cc1` was tested. Which “hERG current change (%, negative = inhibition) at 1uM” value did it give?
Answer: 0.488%

Question: Which “hERG current change (%, negative = inhibition) at 1uM” value does the source give for `CCn1c(-c2cccc(Cl)c2)n[nH]c1=S` here?
Answer: 0.948%

Question: `COc1ccc(CN2CCNC(=O)C2CC(=O)NC2CCCC2)c(C)c1C` (centres unmarked) was tested. Which “hERG current change (%, negative = inhibition) at 1uM” value did it give?
Answer: 10.2%

Question: How did the “hERG current change (%, negative = inhibition) at 1uM” value turn out when `CC(C)(C)NC(=O)C(=O)NCc1ccccn1` was run?
Answer: 14.1%

Question: How did the “hERG current change (%, negative = inhibition) at 1uM” value turn out when `Cc1nnc(NC(=O)CSc2ccc(-c3ccc(Cl)cc3)nn2)s1` was run?
Answer: 12.4%

Question: `COc1ccccc1CNC(=O)CCNC(=O)N1CC(=O)Nc2ccccc21` was tested. Which “hERG current change (%, negative = inhibition) at 1uM” value did it give?
Answer: 14.3%

Question: For `O=C(O)c1ccccc1C(=O)N(c1ccccc1)c1ccccc1`, which “hERG current change (%, negative = inhibition) at 1uM” value is on record?
Answer: -7.87%

Question: How did the “hERG current change (%, negative = inhibition) at 1uM” value turn out when `COCCCN(C(=S)Nc1ccc(C)cc1Cl)C(C)c1ccncc1` (centres unmarked) was run?
Answer: 9.65%

Question: How did the “hERG current change (%, negative = inhibition) at 1uM” value turn out when `O=C1C(=O)N(Cc2cccnc2)C(c2cccc([N+](=O)[O-])c2)/C1=C(\O)c1ccc2c(c1)OCCO2` (centres unmarked) was run?
Answer: 3.29%

Question: Which “hERG current change (%, negative = inhibition) at 1uM” value does the source give for `Cn1nc(-c2ccccc2)c(CSc2ccccc2)c1Cl` here?
Answer: 13.6%

Question: How did the “hERG current change (%, negative = inhibition) at 1uM” value turn out when `O=C(/C(=C/O)N=Nc1ccc(Cl)cc1)c1ccncc1` was run?
Answer: 12.2%

Question: For `CC(=O)N1N=C(c2ccc(C)cc2)CC1c1ccc2c(c1)OCO2` (centres unmarked), which “hERG current change (%, negative = inhibition) at 1uM” value is on record?
Answer: -6.77%

Question: `CC(=O)N1N=C2C3CCN(CC3)C2C1c1ccc(Br)cc1` (centres unmarked) was tested. Which “hERG current change (%, negative = inhibition) at 1uM” value did it give?
Answer: 6.4%

Question: With `O=C(COc1cccc(Cl)c1)Nc1ccccc1N1CCCCC1` as the compound, how does the “hERG current change (%, negative = inhibition) at 1uM” value read?
Answer: 4.2%

Question: How did the “hERG current change (%, negative = inhibition) at 1uM” value turn out when `CC(C)(C)c1cc(CCC(=O)NNC(=O)c2ccco2)cc(C(C)(C)C)c1O` was run?
Answer: 1.37%

Question: How did the “hERG current change (%, negative = inhibition) at 1uM” value turn out when `CCc1nc2nc(C)c(NS(=O)(=O)c3ccc(Cl)s3)c(=O)n2[nH]1` was run?
Answer: 13.9%

Question: How did the “hERG current change (%, negative = inhibition) at 1uM” value turn out when `COc1cc(OC)c2c(C)c(Cl)c(=O)oc2c1` was run?
Answer: 13.7%

Question: With `O=C(CSc1nc(-c2ccccc2)cc(=O)[nH]1)Nc1ccccn1` as the compound, how does the “hERG current change (%, negative = inhibition) at 1uM” value read?
Answer: 4.87%

Question: Which “hERG current change (%, negative = inhibition) at 1uM” value does the source give for `Cc1ccc(S(=O)(=O)N/N=C/c2cccc3nccnc23)cc1` here?
Answer: 13.1%

Question: With `CCN1CCN(C(=O)c2ccc(CNS(=O)(=O)c3cccc(OC)c3)cc2)CC1` as the compound, how does the “hERG current change (%, negative = inhibition) at 1uM” value read?
Answer: 2.31%

Question: How did the “hERG current change (%, negative = inhibition) at 1uM” value turn out when `O=C(Cc1cccc2ccccc12)Nc1nc2ccccc2[nH]1` was run?
Answer: -4.04%

Question: `Cc1cccc(C(=O)NC2CCCc3ccccc32)c1` (centres unmarked) was tested. Which “hERG current change (%, negative = inhibition) at 1uM” value did it give?
Answer: 10.9%

Question: Which “hERG current change (%, negative = inhibition) at 1uM” value does the source give for `CCOC(=O)CNC(=O)N1CCc2ccc(NC(=O)c3ccccc3OC)cc2C1` here?
Answer: 10.4%

Question: `O=C(c1cccc(F)c1)N1CCC(c2nc3ccccc3s2)CC1` was tested. Which “hERG current change (%, negative = inhibition) at 1uM” value did it give?
Answer: -10.9%

Question: For `COC(=O)COc1ccc2c(c1C)O/C(=C\c1ccco1)C2=O`, which “hERG current change (%, negative = inhibition) at 1uM” value is on record?
Answer: 7.9%

Question: How did the “hERG current change (%, negative = inhibition) at 1uM” value turn out when `CCOCCc1nnc(NC(=O)CCC2CCCCC2)s1` was run?
Answer: 12.2%

Question: For `O=C(/C=C/c1ccc(O)c([N+](=O)[O-])c1)c1ccc2ccccc2c1`, which “hERG current change (%, negative = inhibition) at 1uM” value is on record?
Answer: 16.4%

Question: With `COc1ccc(N(Cc2ccccc2)S(=O)(=O)c2cccc(C(=O)NC3=NCCS3)c2)cc1` as the compound, how does the “hERG current change (%, negative = inhibition) at 1uM” value read?
Answer: 11.3%

Question: With `CC(=O)N1CCC(N(CCCOC(C)C)S(=O)(=O)c2ccc([N+](=O)[O-])cc2)CC1` as the compound, how does the “hERG current change (%, negative = inhibition) at 1uM” value read?
Answer: 1.46%

Question: How did the “hERG current change (%, negative = inhibition) at 1uM” value turn out when `Cn1nc(-c2ccccc2)c(C(=O)NC(C(=O)O)c2ccccc2)c1Cl` (centres unmarked) was run?
Answer: 15.2%

Question: Which “hERG current change (%, negative = inhibition) at 1uM” value does the source give for `COC(=O)c1cn(NC(=O)c2cc(OC)c(OC)c(OC)c2)c(=O)c2ccccc12` here?
Answer: 16.2%

Question: Which “hERG current change (%, negative = inhibition) at 1uM” value does the source give for `Cc1cccc(OCc2nnc(SCC(=O)Nc3ccc(C)c(C)c3)o2)c1` here?
Answer: 10%

Question: With `Cc1ccc(SC(C)C(=O)NCC(C)C)cc1` (centres unmarked) as the compound, how does the “hERG current change (%, negative = inhibition) at 1uM” value read?
Answer: 10.5%

Question: How did the “hERG current change (%, negative = inhibition) at 1uM” value turn out when `CCc1ccc(NC(=O)CSc2nnc(Cc3cccn3C)n2-c2ccc(OC)cc2)cc1` was run?
Answer: -1.55%

Question: For `Cc1cc(C)cc(C(=O)OCC(=O)NCC(F)(F)F)c1`, which “hERG current change (%, negative = inhibition) at 1uM” value is on record?
Answer: 8.35%

Question: For `Cc1ccsc1/C=N\NC(=O)c1n[nH]c2c1CCC2`, which “hERG current change (%, negative = inhibition) at 1uM” value is on record?
Answer: -0.0557%

Question: For `Cc1cccc(-c2nc3c(c(SCC(=O)N4CCOCC4)n2)Cc2c(CO)cnc(C)c2O3)c1`, which “hERG current change (%, negative = inhibition) at 1uM” value is on record?
Answer: 1.59%

Question: With `Cn1c(=O)cc(OCC(=O)N2CCN(Cc3ccc4c(c3)OCO4)CC2)c2ccccc21` as the compound, how does the “hERG current change (%, negative = inhibition) at 1uM” value read?
Answer: -7.64%

Question: For `Cc1cc(NS(=O)(=O)c2ccc(NC(=O)c3ccco3)cc2)no1`, which “hERG current change (%, negative = inhibition) at 1uM” value is on record?
Answer: 6.55%

Question: Which “hERG current change (%, negative = inhibition) at 1uM” value does the source give for `O=C(NNC(=O)c1sccc1-n1cccc1)c1cccs1` here?
Answer: 8.55%

Question: How did the “hERG current change (%, negative = inhibition) at 1uM” value turn out when `O=C(/C=C/c1ccc2c(c1)OCCCO2)c1ccc2ccccc2c1O` was run?
Answer: -0.813%

Question: Which “hERG current change (%, negative = inhibition) at 1uM” value does the source give for `NC(=O)c1ccccc1OCC(=O)NS(=O)(=O)c1ccc(Cl)cc1` here?
Answer: -3.01%

Question: Which “hERG current change (%, negative = inhibition) at 1uM” value does the source give for `C=CCN(c1ccccc1)S(=O)(=O)c1cccc(C(=O)Nc2cccc(C)n2)c1` here?
Answer: 13.5%

Question: For `Cc1ccccc1Cn1cc(NC(=O)CCCn2nc([N+](=O)[O-])cc2C)cn1`, which “hERG current change (%, negative = inhibition) at 1uM” value is on record?
Answer: 0.646%

Question: `CCC1CCCCN1C(=O)CSc1nnc(-c2cccc(Cl)c2)o1` (centres unmarked) was tested. Which “hERG current change (%, negative = inhibition) at 1uM” value did it give?
Answer: -9.15%

Question: With `O=C(O)C(=O)O.O=C(c1ccccc1)c1ccc(OCCCCN2CCCCC2)cc1` as the compound, how does the “hERG current change (%, negative = inhibition) at 1uM” value read?
Answer: -7.28%

Question: How did the “hERG current change (%, negative = inhibition) at 1uM” value turn out when `O=C(N/N=C/c1ccc(-c2ccccc2)o1)c1ccccc1O` was run?
Answer: 8.54%

Question: How did the “hERG current change (%, negative = inhibition) at 1uM” value turn out when `O=C1C(c2c(O)[nH]c3ccccc23)=Nc2ccccc21` was run?
Answer: 11.1%

Question: Which “hERG current change (%, negative = inhibition) at 1uM” value does the source give for `CC1CCCN(C(=O)c2cc(N3C(=O)C4C5CCC(C5)C4C3=O)ccc2Cl)C1` (centres unmarked) here?
Answer: 16.7%

Question: With `C=CCn1c(SCC(=O)c2c(N)n(C)c(=O)n(C)c2=O)nnc1-c1ccncc1` as the compound, how does the “hERG current change (%, negative = inhibition) at 1uM” value read?
Answer: 9.69%

Question: For `CCOc1c(Cl)cc(CNCc2ccccn2)cc1OC.Cl`, which “hERG current change (%, negative = inhibition) at 1uM” value is on record?
Answer: -1.38%

Question: `COc1ccccc1C1CC(c2cccc(NS(C)(=O)=O)c2)=NN1S(=O)(=O)c1ccccc1` (centres unmarked) was tested. Which “hERG current change (%, negative = inhibition) at 1uM” value did it give?
Answer: 9.64%

Question: How did the “hERG current change (%, negative = inhibition) at 1uM” value turn out when `Cn1c(SCC(=O)NNC(=S)Nc2ccccc2)nnc1-c1ccccc1` was run?
Answer: 10.1%

— PMC4336329 (PLoS ONE, 2015)
